# Test results: PubChem BioAssay AID504339 (National Center for Advancing Translational Sciences (NCATS), 2011)
# In all, about 390,000 compounds went through this assay and about 17,000 (4.4%) were called active. This list was built around the results that the source calls inconclusive (neither active nor inactive); the mix of calls is not that of the screen. Calls follow the shape of the dose curve; as a rule, active = well fitted inhibition curve with a large enough effect; inconclusive = small, poorly fitted or top-dose-only effect; inactive = no such curve, though single readings can be large or run the other way. Potencies beside an inconclusive call are fits to weak or partial responses and may not hold up. Some compounds were tested as several samples or in several runs, with calls that do not always agree.
# Molecular target: Lysine-specific demethylase 4A (Homo sapiens) (UniProt O75164)
# Sequence of UniProt O75164 (O75164 whole entry, looked up, the tested form may be a part): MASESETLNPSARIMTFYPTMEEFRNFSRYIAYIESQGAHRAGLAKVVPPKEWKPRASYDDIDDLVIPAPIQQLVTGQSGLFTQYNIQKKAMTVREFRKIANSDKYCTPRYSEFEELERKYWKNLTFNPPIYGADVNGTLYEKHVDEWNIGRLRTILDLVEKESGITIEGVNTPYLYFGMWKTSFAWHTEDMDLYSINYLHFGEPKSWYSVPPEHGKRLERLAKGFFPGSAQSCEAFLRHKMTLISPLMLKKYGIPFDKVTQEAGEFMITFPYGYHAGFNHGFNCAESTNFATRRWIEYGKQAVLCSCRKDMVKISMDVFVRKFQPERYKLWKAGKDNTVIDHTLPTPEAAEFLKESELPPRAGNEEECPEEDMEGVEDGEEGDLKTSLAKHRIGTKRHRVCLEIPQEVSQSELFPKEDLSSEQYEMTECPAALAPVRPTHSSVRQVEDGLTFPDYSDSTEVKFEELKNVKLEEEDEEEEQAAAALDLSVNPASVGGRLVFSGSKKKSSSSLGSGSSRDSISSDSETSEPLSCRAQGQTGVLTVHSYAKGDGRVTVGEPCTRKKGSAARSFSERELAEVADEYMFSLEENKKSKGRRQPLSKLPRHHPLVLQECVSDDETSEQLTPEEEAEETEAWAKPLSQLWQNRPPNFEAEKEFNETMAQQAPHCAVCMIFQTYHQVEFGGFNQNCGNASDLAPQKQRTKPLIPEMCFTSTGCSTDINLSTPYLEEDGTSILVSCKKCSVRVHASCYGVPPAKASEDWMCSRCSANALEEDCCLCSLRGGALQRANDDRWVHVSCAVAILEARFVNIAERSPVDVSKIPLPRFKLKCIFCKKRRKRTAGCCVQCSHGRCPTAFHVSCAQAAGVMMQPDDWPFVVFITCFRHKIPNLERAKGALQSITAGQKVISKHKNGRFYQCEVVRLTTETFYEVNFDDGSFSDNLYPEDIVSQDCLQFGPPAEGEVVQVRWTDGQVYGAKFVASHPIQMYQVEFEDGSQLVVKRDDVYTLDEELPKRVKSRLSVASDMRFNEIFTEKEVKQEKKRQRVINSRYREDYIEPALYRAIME
# Assay: qHTS Assay for Inhibitors of JMJD2A-Tudor Domain; also: nearly all actives have a fitted effect of over 50% in size
# Conditions: AlphaScreen JMJD2A-Tudor / H3K4me3 peptide binding; activity change, negative = inhibition: at 114 µM (top of the series)
# % is scaled to controls: 0 for no effect and ±100 for the full control effect; potency is read from the fitted curve at half-maximal effect; tags tell the direction and shape of the fitted curve.
Compound,Potency,"activity change, negative = inhibition"
COc1ccc(S(=O)(=O)N(C)C)cc1NCC(=O)Nc1ccc(F)cc1F,"inconclusive: 89.1 µM [inhibitor, single point]",
COc1ccc(CCNC(=O)C2CCC(CNS(=O)(=O)c3ccc(C)cc3)CC2)cc1OC (centres undefined),inactive,
CC(C(=O)Nc1ccc(O)c(C(=O)O)c1)N1C(=O)/C(=C/c2cccs2)SC1=S (centres undefined),"inconclusive: 39.8 µM [inhibitor, partial curve]",
CCOC(=O)C1(CCOc2ccccc2)CCN(Cc2ccc(OC)c(O)c2)CC1,inactive,
COCCNC(=O)CSc1nc(-c2cc(OC)c(OC)c(OC)c2)[nH]c1-c1ccc(Cl)cc1,"inconclusive: 44.7 µM [inhibitor, partial curve]",
CC(=O)N1CCN(c2ccc(NC(=O)c3ccccc3C)cc2)CC1,inactive,
CCCCC(=O)NNC(=S)NC(=O)CCC,active: 50.1 µM,
CC(C)C(=O)OCc1cn(-c2ccc(Cl)c(Cl)c2)nn1,active: 22.4 µM,
COc1ccc(N2CCN(C(=O)C(=O)c3c(C)[nH]c4ccccc34)CC2)cc1,"inconclusive: 56.2 µM [inhibitor, partial curve]",
CCCCOC(=O)CCCN1C(=O)/C(=C2\SC(=S)N(CCCC(=O)OCCCC)C2=O)SC1=S,"inconclusive: 7.94 µM [inhibitor, full curve, poor fit]",
Cc1cccnc1NC(=S)Nc1ncccc1C,inactive,
CCOc1c(C)cc(-c2ncccc2O)cc1C,active: 89.1 µM,
Cc1ccc(Nc2nnc(-c3ccc(C)c(S(=O)(=O)N4CCN(C)CC4)c3)c3ccccc23)cc1,"inconclusive: 28.2 µM [inhibitor, full curve, poor fit]",
Cc1cccc(N=Nc2c(C)nn(-c3ccccc3)c2N)c1C,active: 25.1 µM,
COc1ccc(C(=O)N/C(=C\c2cn(S(=O)(=O)N(C)C)c3ccccc23)C(=O)N2CCOCC2)cc1,"inconclusive: 63.1 µM [inhibitor, partial curve, poor fit]",
COc1ccc(Nc2ccccc2)c(C)c1,"inconclusive: 56.2 µM [inhibitor, partial curve]",
CC(=O)C1=C(O)C(=O)N(CCN2CCOCC2)C1c1ccc(N(C)C)cc1 (centres undefined),"inconclusive: 39.8 µM [inhibitor, single point]",
O=C(CC1(O)C(=O)N(CCc2ccccc2)c2ccc(Br)cc21)c1ccc(F)cc1 (centres undefined),inactive,
C/C(Cl)=C\Cn1c(O)c(N=NC(N)=S)c2cc(Br)ccc21,active: 44.7 µM,
O=C(Cc1ccccc1)Nc1sc2c(c1C(=O)Nc1ccccc1)CCCCC2,"inconclusive: 79.4 µM [inhibitor, partial curve]",
CC[C@H](C)[C@@H](C(=O)N1CCNCC1)n1cc([C@@H](N)CC(C)C)nn1,"inconclusive: 63.1 µM [inhibitor, partial curve, poor fit]",
CCCCS(=O)(=O)c1sc2nc(C)cc(C)c2c1N,inactive,

Compound,Potency,"activity change, negative = inhibition"
CCN1C(=O)/C(=C/C=C2/SCCN2C)SC1=S,,inactive: 8.9% [at 11.4 µM]
CCOC(=O)C1CCCN(c2c(NCCCN(CC)c3cccc(C)c3)c(=O)c2=O)C1 (centres undefined),,inactive: -12.3% [at 11.4 µM]
c1ccc(-c2onc(-c3ccco3)c2-c2ccc3[nH]ccc3c2)cc1,"inconclusive: 35.5 µM [inhibitor, full curve, poor fit]",
Cc1nc2cc(C(F)(F)F)ccc2n1CCNc1nc(-c2cc(Cl)c(N)c(Cl)c2)cs1,"inconclusive: 56.2 µM [inhibitor, single point]",
O=[N+]([O-])c1ccc2nc(-[n+]3c(-c4ccccc4)cc(-c4ccccc4)cc3-c3ccccc3)[nH]c2c1,"inconclusive: 56.2 µM [inhibitor, partial curve, poor fit]",
Cc1ccc(Nc2c(-c3ccc(N(C)C)cc3)nc3nc[nH]n23)cc1,"inconclusive: 7.08 µM [inhibitor, partial curve, poor fit]",
COc1ccccc1C(=O)Nc1nnc(-c2ccco2)s1,"inconclusive: 79.4 µM [inhibitor, partial curve]",
CCc1ccc(-c2cc(C)no2)cc1S(=O)(=O)N1CCN(c2ccc(OC)cc2)CC1,"inconclusive: 35.5 µM [inhibitor, partial curve]",
O=[N+]([O-])c1ccccc1NCCOc1ccccc1,"inconclusive: 28.2 µM [inhibitor, full curve]",
O=C(COC(=O)Cc1c[nH]c2ccccc12)NCCc1ccccc1,"inconclusive: 4.47 µM [inhibitor, single point]",
O=C(/C=C/c1ccc(F)cc1)NC(=S)N1CCN(Cc2ccccc2)CC1,"inconclusive: 56.2 µM [inhibitor, partial curve]",
COc1ccccc1C(=O)N(CCN(C)C)c1nc2cc(C)cc(C)c2s1,"inconclusive: 50.1 µM [inhibitor, partial curve]",
Cc1ccsc1/C=C/C1=Cc2c(sc(NC(=O)CSc3n[nH]c(N)n3)c2C#N)C(C)(C)C1,"inconclusive: 63.1 µM [inhibitor, partial curve]",
Cc1cccc(/C=N/n2c(C3CCCCC3)n[nH]c2=S)c1,active: 56.2 µM,
COc1ccc(Nc2c(-c3ccc(C)o3)nc3ccccn23)cc1,"inconclusive: 56.2 µM [inhibitor, partial curve]",
COc1ccc(-n2c(O)c(/C=N/n3cnnc3)c3ccccc3c2=O)cc1,active: 44.7 µM,
O=C(COC(=O)CSc1ccc2ccccc2c1)NC1CC1,inactive,
CC1CCCCN1C(=O)Cn1c(=O)n(-c2ccc(Cl)cc2)c(=O)c2c3c(sc21)CCC3 (centres undefined),inactive,
CSc1sc(-c2n[nH]c(=S)n2C)c2c1C=CCC2,"inconclusive: 56.2 µM [inhibitor, partial curve]",
COc1ccc(OCCCC(=O)OC(C)C(=O)Nc2ccccc2[N+](=O)[O-])cc1 (centres undefined),"inconclusive: 39.8 µM [inhibitor, partial curve]",
CC(NCC1COc2ccccc2O1)C(=O)NCc1ccccc1 (centres undefined),active: 1.26 µM,
COc1ccc(CNC(=O)c2ccc(NC(=O)N3CC4CCCN4c4ccccc43)cc2)cc1 (centres undefined),"inconclusive: 20 µM [inhibitor, full curve]",
